Patent publication US20090131420A1, “Novel Heterocyclic Analogs of Biphenyl Ethers” (priority 2005, published 2009)
At least one read-out could not be matched to a standard name with certainty.

System: 3T3-L1 cells
Assay: Glucose uptake assay using 3T3-L1 cells
Format: cell-based
Conditions: differentiated 3T3-L1 adipocytes; 1 μM, 72 hours incubation; 14C deoxyglucose uptake for 10 min; values with reference to stimulation index of reference compound BLX-1002

| Structure (SMILES) | Stimulation Index |
| --- | --- |
| N#Cc1cccnc1Nc1ccc(Oc2ccc(CC3COCC(=O)N3)cc2)c(F)c1 (stereo not shown) [Example 10, 2-[(3-Fluoro-4-{4-[(5-oxomorpholin-3-yl)methyl]phenoxy}phenyl)amino]nicotinonitrile] | 0.82 |
| CN1C(=O)COCC1Cc1ccc(Oc2ccc(Nc3ncccc3[N+](=O)[O-])cc2F)cc1 (stereo not shown) [Example 11, 4-Methyl-5-{4-[2-fluoro-4-(3-nitropyridin-2-ylamino)phenoxy]benzyl}morpholin-3-one] | 1.14 |
| O=C1COCC(Cc2ccc(Oc3ccc(Nc4ccccn4)cc3)cc2)N1 (stereo not shown) [Example 1, 4-{4-[4-(Pyridin-2-ylamino)phenoxy]benzyl}-morpholin-3-one] | 0.88 |
| O=C1COCC(Cc2ccc(Oc3ccc(Nc4ccc([N+](=O)[O-])cn4)cc3)cc2)N1 (stereo not shown) [Example 2, 5-(4-{4-[(5-Nitropyridin-2-yl)amino]phenoxy}benzyl)morpholin-3-one] | 1.06 |
| O=C1COCC(Cc2ccc(Oc3ccc(Nc4ccc([N+](=O)[O-])cn4)cc3F)cc2)N1 (stereo not shown) [Example 8, 5-{4-[2-Fluoro-4-(5-nitropyridin-2-ylamino)phenoxy]benzyl}morpholin-3-one] | 0.66 |
| N#Cc1cccnc1Nc1ccc(Oc2ccc(CC3COCC(=O)N3)cc2)cc1 (stereo not shown) [Example 7, 2-[(4-{4-[(5-Oxomorpholin-3-yl)methyl]phenoxy}phenyl)amino]nicotinonitrile] | 1.05 |
| CN1C(=O)COCC1Cc1ccc(Oc2ccc(Nc3ccc(C(F)(F)F)cn3)cc2)cc1 (stereo not shown) [Example 13] | 1.00 |
| O=C1COCC(Cc2ccc(Oc3ccc(Nc4ncccc4[N+](=O)[O-])cc3F)cc2)N1 (stereo not shown) [Example 6, 5-{4-[2-Fluoro-4-(3-nitropyridin-2-ylamino)phenoxy]benzyl}morpholin-3-one] | 1.06 |
| CN1C(=O)COCC1Cc1ccc(Oc2ccc(Nc3ccc([N+](=O)[O-])cn3)cc2)cc1 (stereo not shown) [Example 12, 4-Methyl-5-{4-[4-(5-nitropyridin-2-ylamino)phenoxy]benzyl}morpholin-3-one] | 1.18 |
| O=C1COCC(Cc2ccc(Oc3ccc(Nc4ccc(C(F)(F)F)cn4)cc3F)cc2)N1 (stereo not shown) [Example 9, 5-{4-[2-Fluoro-4-(5-(trifluoromethyl)pyridin-2-ylamino)phenoxy]benzyl}morpholin-3-one] | 0.92 |
